The text below walks through data of the supplement of paper PMC11417369.

± gives the standard deviation of the averaged measurements. Some of the results follow.

In the assay the test system is PfAP2-LT AP2 domain (GST-tagged). The assay is described as follows: gcPBM binding intensity (ln(normalized median fluorescence intensity)); higher = stronger DNA binding. The gist of the method:
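An Agilent 4 × 180k array carrying primer-extended double-stranded 36-bp intergenic genomic probes and negative controls received GST-tagged P. falciparum DNA-binding domains expressed in E. coli, about 25 μg on average, for 1 h. The binding buffer contained 1× PBS, 1% milk, 0.2 mg/ml BSA, 0.5% salmon testes DNA and 0.03% Triton X-100. Binding intensity is the top Masliner-normalised natural-log median intensity across replicate spots of either probe orientation, read after Alexa488 anti-GST antibody staining and a 488 nm scan.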
In the case of “AAAAAAAAGAAAAACACACACATATATATATAGAAT [CACACA_site1006]”, the “gcPBM binding intensity (ln)” value was 9.64 ± 0.45.
In the case of “TTTCCCTTGTTGTAAACATGCACAATATTTAGGTAT [TGCATGCA_site49]”, the “gcPBM binding intensity (ln)” value amounted to 8.88 ± 0.38.
The same measure for “TATATTTATAGGTATACACACATATGTATGTTATGT [CACACA_site7824]”: 9.41 ± 0.45.
Then “TTATGTATTTATATAAATATAAATATATATATATAT [CACACA_negctrl_site774]”, with 8.64 ± 0.34; and “TCATTTTATTTTTTCACACACACATCTATATTTATA [CACACA_site7547]”, with 9.38 ± 0.32; and “ACAAAAATAAACTATAGTACACACTTATTATTATGA [XGTACX_site5680]”, with 8.82 ± 0.46.
The same measure for “TAAGTAACTTTTAAAAGTACCCACACATATATATAT [XGTACX_site1231]”: 8.88 ± 0.33; for “TTTCTTTTTTTTTTTTTTTTTTTTTTTTTTTTTTTT [TGCATGCA_negctrl_site91]”: 8.59 ± 0.16.
For the sequence “CAATTAGCATTTTATTGTACATTTATAATCTATGAT [XGTACX_site1445]”, the “gcPBM binding intensity (ln)” value was found to be 8.74 ± 0.41.
The same measure for “AAAAAAAAAAATACTCGTACATAAACCTATACATTT [XGTACX_site6494]”: 8.83 ± 0.45; for “CTTAGAATATATGAATGTACTTTTTTTTTTAAATAA [XGTACX_site6048]”: 8.18 ± 0.45.
The same measure for “ATAATATATTTTTGTAGTACACTTCTGGTAATATCG [XGTACX_site2402]”: 8.81 ± 0.46; for “AGTATACAGATATATACACACATATATATATATATA [CACACA_site4323]”: 9.935 ± 0.021; for “TATATATATATATGTTGTACAAAAATGTAAAATATA [XGTACX_site7761]”: 9.18 ± 0.12.
“ATACATATAAATAATTGTACTATTAAAAAAGAACGT [XGTACX_site3751]”: the “gcPBM binding intensity (ln)” value is 9.03 ± 0.35.
Then “TGTTTTTAATTTCGCACACACCTTGTGGAAAAAAAA [CACACA_site4482]”, with 8.88 ± 0.38; and “ATATATATATTTGTATGTACATATCATATTGTGTGT [XGTACX_site1580]”, with 9.56 ± 0.35.
The same measure for “ATACGTGGGCAAAAAGTGCATATAATCAAAAAAAAA [GTGCAC_site9961]”: 8.98 ± 0.64; for “AAGATATTTGAATATACACACGATTTAAATTTAATA [CACACA_site3866]”: 8.7 ± 0.4.
Consider “GTATAACTTTTGCGCGTACACACATTTATCCTCTTT [CACACA_site208]”, for which the “gcPBM binding intensity (ln)” value was found to be 9.68 ± 0.47.
Consider “TTTCTTTTTTTATAATCCACATTGGGAAAATCAAAA [TGCATGCA_negctrl_site159]”, for which the “gcPBM binding intensity (ln)” value was found to be 8.12 ± 0.45.
The same measure for “ACGTATAATATGTACACACACATATATACAAAAAAA [CACACA_site917]”: 9.45 ± 0.42.
For “TAGAATATCCCCTACACACCCAAATAATTTACAAAT [CACACA_site4825]”, the “gcPBM binding intensity (ln)” value was found to be 9.3 ± 0.35.
Consider “AAAGTTGTTACGAACATACACACGAACATACTCACG [CACACA_site604]”, for which the “gcPBM binding intensity (ln)” value amounted to 9.12 ± 0.37.
For the sequence “TTGAAATATACGTAAGTAAATTTCATTTGGTTGTGT [XGTACX_negctrl_site600]”, the “gcPBM binding intensity (ln)” value amounted to 8.77 ± 0.47.
The same measure for “CATATATTATTATATGCACACATGAAAATATACAAA [CACACA_site2795]”: 8.97 ± 0.33.
The same measure for “AAAATATTTATTACTTCACACATTATTGTATTTATA [CACACA_site5082]”: 8.88 ± 0.4.
Then “GTATTATATATATAGGTGCATATATATATATAAATA [GTGCAC_site9787]”, with 8.99 ± 0.4; and “AAATATAAAGGATTAATATTATATATATATATATAT [XGTACX_negctrl_site211]”, with 9.095 ± 0.021.
For the sequence “GTTTGGTGGTGTTTTGGTACGTACGGGGGGGTATGT [XGTACX_site1983]”, the “gcPBM binding intensity (ln)” value amounted to 10.9 ± 0.18.
Then “TTTTTTTTTTTTTATTGTACTTATTTTTTTATGTTT [XGTACX_site7725]”, with 8.71 ± 0.52.
The same measure for “ATATTTTCTTTAAATTGTACATATTGTGATACAAAA [XGTACX_site5886]”: 8.4 ± 0.24; for “TATGTATTTTTATGCACACATGCGTGGCTTATATAA [CACACA_site387]”: 9.09 ± 0.39; for “ATTTTTTTTTTTTTTTTTTTTTTGTTTATACAAAAT [CACACA_negctrl_site1241]”: 8.43 ± 0.47.
The same measure for “TATATACATACATGTAGTACCTAATTCGGTCCCGTA [XGTACX_site2702]”: 8.91 ± 0.45; for “TTTCATTTAGCTTTTACACACTATATATTATTGATT [CACACA_site16]”: 8.99 ± 0.47.
On to TATATGTGTCTACAGGTGCATATATCATATATTGCT, for which the “gcPBM binding intensity (ln)” value was found to be 8.88 ± 0.38.
The same measure for “ACACATACATATACATACACATTGTTTTCATGCATC [XGTACX_negctrl_site126]”: 9.2 ± 0.39.
Then “TATAAATATTTATACACACACATATATTTATATATC [CACACA_site6366]”, with 9.24 ± 0.35; and “TAAATAAATTTATACACACACACACGGATATAAATA [CACACA_site6532]”, with 9.82 ± 0.071; and “AATCAAAATTCATTAACACACAATTTTAATATTCTT [CACACA_site5178]”, with 8.64 ± 0.45.
On to TATTTTTATAAGAGCATGCACTGTTTAAAATGGTAT, for which the “gcPBM binding intensity (ln)” value was 8.55 ± 0.35.
Then “TTTTTTAAAATATGGACACACATATATATATATGTA [CACACA_site2784]”, with 8.68 ± 0.37; and “TTTTGATATAAAAAAAGTACATTAATAATATTAATT [XGTACX_site4248]”, with 8.31 ± 0.38; and “CAGTATTCTTCTATATGTACTTATTTAAATATTCTT [XGTACX_site7555]”, with 8.77 ± 0.47.
The same measure for “TAAATAATAATAAATGTGCACAGGTATTAACAAAAA [GTGCAC_site9988]”: 9.08 ± 0.54.
The same measure for “ATGATATGGATAAATACACACAATAAAATAATGTCT [CACACA_site6786]”: 9.12 ± 0.4.
As to “TTTTAACAAAACAAAACAAAATAATATAAAGATAAC [TGCATGCA_negctrl_site154]”, the “gcPBM binding intensity (ln)” value was found to be 8.74 ± 0.4.
Take “TTTATTTATTTATGTTGTACAAGTTTATACTGGAAT [XGTACX_site6479]”: the “gcPBM binding intensity (ln)” value was determined as 8.75 ± 0.34.
For the sequence “TTTTTTTTTTTTTTTTTTTGATTCTTATAAAAATTT [GTGCAC_negctrl_site240]”, the “gcPBM binding intensity (ln)” value turned out to be 8.09 ± 0.33.
Then “AGGTCACATTTGTCCTCACACATAGATAAATATATA [CACACA_site5460]”, with 8.71 ± 0.44.
With “ATAATTTGATCAATTTTTCATTTTTCATTTTTTTAA [CACACA_negctrl_site1252]”, the “gcPBM binding intensity (ln)” value worked out at 8.54 ± 0.36.
As for “GTCAAAAATAATATATGTACTTATAATAGATAAATG [XGTACX_site7755]”, the “gcPBM binding intensity (ln)” value was 8.7 ± 0.45.
The same measure for “AATTAGCATTAAAAATGTACAAAAGAAAAAAATATA [XGTACX_site3816]”: 8.76 ± 0.61.
“TTAACATATGACATTTTTTCACCCTTCCTTTATTTT [CACACA_negctrl_site1192]”: the “gcPBM binding intensity (ln)” value was determined as 8.74 ± 0.57.
“ATAAAATCATTCAATGGTACAGAAATACAAAATGTA [XGTACX_site6739]”: the “gcPBM binding intensity (ln)” value came to 8.84 ± 0.4.
In the case of “TATGTATAAAAATATTGTACATATTATATATATATA [XGTACX_site2947]”, the “gcPBM binding intensity (ln)” value amounted to 8.71 ± 0.26.
For the sequence “TAAAATTTAAAAAGGTGTACACTATAAATTAAAATA [XGTACX_site2081]”, the “gcPBM binding intensity (ln)” value was 8.68 ± 0.62.
On to “AGAAAGAATGAAAAATGTACATATATGTAATAGCTA [XGTACX_site364]”, for which the “gcPBM binding intensity (ln)” value turned out to be 9.24 ± 0.4.
Turning to “CACACGTATATATATACACACTAAAATACCCAGACA [CACACA_site6142]”, the “gcPBM binding intensity (ln)” value was found to be 9.26 ± 0.42.
The same measure for “TATTTTTTTACATATTGTACATAATATAAAACTTAC [XGTACX_site8273]”: 8.8 ± 0.47; for “ATTTTTTCATATTCTACACACGTGAACAAATGTGTC [CACACA_site3007]”: 9.25 ± 0.42.
As to “ATATAATAGAAGTGTACACACATATTTATGGGTGTA [CACACA_site5686]”, the “gcPBM binding intensity (ln)” value was determined as 9.12 ± 0.45.
Then “AATATTTTGTTATTTATTTAATCTAATATTATGATA [GTGCAC_negctrl_site258]”, with 8.53 ± 0.4.
Then “TTTTTAGTTAATTAAACACACAAAAAAAAAAATAAA [CACACA_site3930]”, with 8.46 ± 0.49; and “AATATTTTTATATATATACACACTTACATATATATA [CACACA_site3609]”, with 8.91 ± 0.4; and “ATAATATTGTGGTATACACACCTTACAAAAAGGTAC [CACACA_site5582]”, with 8.96 ± 0.42.
The same measure for “TTTTCTAAAAAAAGTTGTACATCTTATTTATATTAT [XGTACX_site295]”: 8.59 ± 0.51; for “AAAAAATAAAAAAATAAAAAATAAAAAATAAAAAAT [TGCATGCA_negctrl_site90]”: 8.54 ± 0.56.
Consider “TATAAAAATAAATAAATAAATAAATAAATAAATAAA [TGCATGCA_negctrl_site310]”, for which the “gcPBM binding intensity (ln)” value amounted to 8.44 ± 0.54.
Consider “AAAAATTACCCATCCATACACACATATTTTTTTTAA [CACACA_site2190]”, for which the “gcPBM binding intensity (ln)” value turned out to be 9.04 ± 0.19.
Turning to “ATGTAAGACAAAAAGGGTACATAATGCGTATGTATT [XGTACX_site4666]”, the “gcPBM binding intensity (ln)” value stood at 9.25 ± 0.47.
The same measure for “GTATATAATTATATATGTACTAAATAAATATTTTTA [XGTACX_site6062]”: 8.49 ± 0.43; for “ATTAAAATTTGTTAAAGTACTTAATAAAAATTTTTC [XGTACX_site1959]”: 8.26 ± 0.4; for “TATAAATCTATAAATGCACACAAGGGAAGAAAAACG [CACACA_site2965]”: 9.32 ± 0.56.
The same measure for “CAAACAATTAAACAAACACACATATACAAGTATATA [CACACA_site8639]”: 9.03 ± 0.44.
As to “TATTATTCCAAGAAAAAAAAAAATAAAAAAAAAAAA [CACACA_negctrl_site1424]”, the “gcPBM binding intensity (ln)” value came to 8.15 ± 0.57.
Then “AAAGAACAAATAAAACATAAAATAATATATATAGAT [CACACA_negctrl_site1764]”, with 8.91 ± 0.42; and “TATATATTATATATGTGTACTCACTAACAAAAATTA [XGTACX_site6285]”, with 8.48 ± 0.43; and “AGGTGAATATTTTTTACACACATAAAAAAAATATAT [CACACA_site57]”, with 8.99 ± 0.45.
The same measure for “TTTAAGATTTTGTAATGTACATATATACATATATAT [XGTACX_site399]”: 8.86 ± 0.39; for “AAATTATATAAAGGAACACACATTTTATTTTATTTT [CACACA_site1500]”: 8.64 ± 0.44; for “TATATTTTTATAATAACACACGATATATGTTTAGGA [CACACA_site1283]”: 8.57 ± 0.44.
Consider AATGACTACATAATAGTGCAATATTAAAGAAAATTA, for which the “gcPBM binding intensity (ln)” value was 8.79 ± 0.49.
The same measure for “TGTATATCATAAGATGGTACACGTGTGTGCGTATGC [XGTACX_site2255]”: 9.47 ± 0.35; for “ATTCTTAAAAAAAAATGTACACATGAACAATATGTA [XGTACX_site362]”: 8.59 ± 0.44.
The same measure for “AATATGACGTAGTGGTGTACACACATGGTACCTTTA [XGTACX_site3147]”: 9.3 ± 0.44; for “AAAAGATAATTATGCACACACACACCCCCACCCAAC [CACACA_site2570]”: 10.38 ± 0.064.
